Assay results as given in the RNAGym collection of RNA variant scans (doi:10.1093/nar/gkz1192).
Read counts are not given, so values of variants with three or more changes are uncertain.

B1: CPEB3 Ribozyme (parent)
chain: UAACAGGGGGCCACAGCAGAAGCGUUCACGUCGCAGCCCCUGUCAGAUUCUGGUGAAUCUGCGAAUUCUGCUGUAUAUCUC

Variants of: B1
Assay: self-cleavage, relative activity (ratio to wild type); higher = more cleavage; in vitro, sequencing
Outline: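 For each CPEB3 ribozyme variant, relative activity is its cleaved/total read fraction divided by the unmutated ribozyme's. Barcoded error-prone PCR libraries were transcribed by T7 RNA polymerase (5 hours, 37°C) and held in DNase I for 15 min before an EDTA stop, with cleavage occurring throughout. Template-switching reverse transcription and Illumina sequencing were used to read the RNAs. A 5-read minimum applied, and results are the mean of three batches.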
For C34U U66C U69C, the self-cleavage was 0.47. For C34U U67C A75U, the self-cleavage was 0.1. In the case of C34U U67C C71A, the self-cleavage is reported as 0.06. In the case of C34U U67C U76C, the self-cleavage is reported as 0.17. A35C A45C A47G U72C U80C showed a self-cleavage of 0.08. Work on A35C A45G A77U yielded a self-cleavage of 0.4. A35C A45G U49C U72C U78C showed a self-cleavage of 0.14. A35C A47G A57G showed a self-cleavage of 0.4. A35C A47G U48C gave a self-cleavage of 0.27. Work on A35C A47G U60C U69C yielded a self-cleavage of 0.28. For A35C A47G U69A A77U, the self-cleavage was 0.49. Work on A35C A64G U66C yielded a self-cleavage of 0.1. A35C A64G U78C U80C gave a self-cleavage of 0.16. With A35C C37U G61A the self-cleavage was 0.13. With A35C C39U A56G U72C the self-cleavage was 0.8. For A35C C39U U69C G70C, the self-cleavage was 0.12. A35C C44U U54A A64G gave a self-cleavage of 0.1. For A35C C68G U69C, the self-cleavage was 0.16. A35C G61C U80C gave a self-cleavage of 0.3. Work on A35C U41C A56U yielded a self-cleavage of 0.56. For A35C U41C A64U U66C, the self-cleavage was 0.27. A35C U41C G52A gave a self-cleavage of 1.1. A35C U41C G61C U80G showed a self-cleavage of 0.32. A35C U41C U51G U54A gave a self-cleavage of 0.69. With A35C U43C A45G U67C A75G the self-cleavage was 0.05. For A35C U43C A57U, the self-cleavage was 0.15. A35C U43G U54A U60A G63A U78A gave a self-cleavage of 0.07. With A35C U49A U58A U72A the self-cleavage was 0.14. Variant A35C U49C U51A has a self-cleavage of 0.65. A35C U51A A56G gave a self-cleavage of 0.47. A35C U54A A64G gave a self-cleavage of 0.23. In the case of A35C U54A A65G A77G, the self-cleavage is reported as 0.2. A35C U58C A65G U80C showed a self-cleavage of 0.19. Work on A35C U58C U67C yielded a self-cleavage of 0.17. Variant A35C U58C U80C has a self-cleavage of 0.55. In the case of A35C U58G U78C, the self-cleavage is reported as 0.35. In the case of A35C U67C U69A, the self-cleavage is reported as 0.18. A35C U67C U74C gave a self-cleavage of 0.21. For A35G A45C A64U U76C U78C, the self-cleavage was 0.2. Variant A35G A45C G53C has a self-cleavage of 0.67. Work on A35G A45C U54C yielded a self-cleavage of 0.68. For A35G A45C U54G A56U U80A, the self-cleavage was 0.36. Work on A35G A45G A56G U76A yielded a self-cleavage of 1.24. For A35G A45G A57G U69C, the self-cleavage was 1.11. For A35G A45G A64G A77U, the self-cleavage was 1.28. With A35G A45G A64U U72A the self-cleavage was 0.64. Variant A35G A45G A64U U74A has a self-cleavage of 1.11. A35G A45G A65G gave a self-cleavage of 1.1. For A35G A45G A65G U66C, the self-cleavage was 0.32. Variant A35G A45G U51A U69A U78C has a self-cleavage of 1.17. With A35G A45G U51C G61C U66C the self-cleavage was 0.37. Work on A35G A45G U58C U66C U78C yielded a self-cleavage of 0.49. With A35G A45G U58C U76C U80C the self-cleavage was 1.08. A35G A45G U66A gave a self-cleavage of 1.17. In the case of A35G A45G U66C, the self-cleavage is reported as 1.03. With A35G A45G U67A the self-cleavage was 1.02. Variant A35G A45G U72A has a self-cleavage of 0.62. Work on A35G A45G U78C yielded a self-cleavage of 1.4. Work on A35G A45U A57G U72C yielded a self-cleavage of 1.01. For A35G A45U A64G, the self-cleavage was 1. In the case of A35G A45U A65G U66C, the self-cleavage is reported as 0.33. In the case of A35G A45U A65G U72A, the self-cleavage is reported as 0.58. A35G A45U C68U gave a self-cleavage of 1.07. Variant A35G A45U G63A U76A has a self-cleavage of 1.38. In the case of A35G A45U U54A U60C A65G, the self-cleavage is reported as 0.61. In the case of A35G A45U U58A, the self-cleavage is reported as 0.26. Work on A35G A45U U72A yielded a self-cleavage of 0.79. A35G A47G A65G U69C U78C showed a self-cleavage of 0.66. Variant A35G A47G C59U A64U has a self-cleavage of 0.66. A35G A47G U49C U66C gave a self-cleavage of 0.22. A35G A47G U51C A65G gave a self-cleavage of 0.63. In the case of A35G A47G U54C, the self-cleavage is reported as 1.29. A35G A47G U72A gave a self-cleavage of 1.03. A35G A47G U72G showed a self-cleavage of 1.25. Variant A35G A47G U74C has a self-cleavage of 1.4. In the case of A35G A47U A64G A65G U67C C68U, the self-cleavage is reported as 0.14. A35G A47U A65G showed a self-cleavage of 0.63. A35G A47U U51C showed a self-cleavage of 0.94. Work on A35G A56G A65U yielded a self-cleavage of 0.84. Variant A35G A56G C62A has a self-cleavage of 0.26. With A35G A56G G73C the self-cleavage was 1.25. In the case of A35G A56G U58A U69A G73A, the self-cleavage is reported as 0.66. Work on A35G A56G U58C yielded a self-cleavage of 0.73.
